{"source": "the supplement of paper PMC9046079", "note": "Structures can show the parent of a compound that is named as a salt. ± gives the standard deviation of the averaged measurements. This is one part of the list.", "data": [{"test_system": "murine small intestinal organoids (ENR+CD Paneth differentiation)", "test": "carbachol-stimulated secreted lysozyme activity relative to plate median (log10 fold change); higher = more Paneth cell lysozyme secretion", "conditions": "0.4 µM; 6 d; carbachol 10 µM", "values": [{"smiles": "COc1cc(-n2c(=S)[nH]c3ccccc3c2=O)c(Cl)cc1Cl", "note": "[Mdivi-1]", "carbachol-stimulated secreted lysozyme activity (log10)": "0.0977 ± 0.045"}, {"smiles": "O=c1[nH]c2ccc(Cl)cc2c(N[C@@H]2CN3CCC2CC3)c1-c1nc2ccccc2[nH]1", "carbachol-stimulated secreted lysozyme activity (log10)": "-0.397 ± 0.11"}, {"smiles": "CCCN1CCO[C@@H]2c3cc(O)ccc3OC[C@H]21", "carbachol-stimulated secreted lysozyme activity (log10)": "0.31 ± 0.08"}, {"smiles": "N[C@@H]1C[C@H]1c1ccccc1", "note": "[Tranylcypromine (2-PCPA) HCl]", "carbachol-stimulated secreted lysozyme activity (log10)": "0.00343 ± 0.14"}, {"smiles": "CCOC(=O)c1cncn1[C@H](C)c1ccccc1", "note": "[Etomidate]", "carbachol-stimulated secreted lysozyme activity (log10)": "0.105 ± 0.17"}, {"smiles": "CC[C@@H]1/C=C/C=C/C[C@H](C)[C@H](O)[C@](C)(O)C(=O)[C@H](C)[C@@H](O)[C@H](C)C(=O)[C@H](C)[C@@H](O)[C@H](C)/C=C/C(=O)O[C@H]2[C@@H](C)[C@@H](CC1)O[C@@]1(CC[C@@H](C)[C@@H](C[C@H](C)O)O1)[C@@H]2C", "note": "[Oligomycin A]", "carbachol-stimulated secreted lysozyme activity (log10)": "-0.3 ± 0.17"}, {"smiles": "Cc1ccc(-n2nccn2)c(C(=O)N2CCN(c3nc4cc(Cl)ccc4o3)CC[C@H]2C)c1", "note": "[Suvorexant (MK-4305)]", "carbachol-stimulated secreted lysozyme activity (log10)": "0.0555 ± 0.087"}, {"smiles": "CN1CCCCC1Cn1cc(C(=O)c2cc([N+](=O)[O-])ccc2I)c2ccccc21", "note": "(stereo not given)", "carbachol-stimulated secreted lysozyme activity (log10)": "0.147 ± 0.32"}, {"smiles": "Cc1sc2c(c1C)C(c1ccc(Cl)cc1)=N[C@@H](CC(=O)Nc1ccc(O)cc1)c1nnc(C)n1-2", "carbachol-stimulated secreted lysozyme activity (log10)": "-0.465 ± 0.055"}, {"smiles": "O=C(O[C@H]1C[C@H]2CC[C@@H](C1)[N+]21CCCC1)C(O)(c1ccccc1)c1ccccc1", "note": "[Trospium chloride]", "carbachol-stimulated secreted lysozyme activity (log10)": "0.175 ± 0.13"}, {"smiles": "C=C1C[C@@H]2[C@H](CC[C@]3(C)C(=O)CC[C@@H]23)[C@@]2(C)C=CC(=O)C=C12", "note": "[Exemestane]", "carbachol-stimulated secreted lysozyme activity (log10)": "0.16 ± 0.069"}, {"smiles": "C[C@@]12N[C@@H](Cc3ccccc31)c1ccccc12", "note": "[(-)-MK 801 Maleate]", "carbachol-stimulated secreted lysozyme activity (log10)": "-0.238 ± 0.033"}, {"smiles": "O=[N+]([O-])/C=C/c1ccc2c(c1)OCO2", "note": "[MNS (3,4-Methylenedioxy-Œ≤-nitrostyrene, MDBN)]", "carbachol-stimulated secreted lysozyme activity (log10)": "0.107 ± 0.31"}, {"smiles": "CC(=O)O[C@H]1C[C@@H]2CC[C@@H]3[C@H](CC[C@@]4(C)[C@H]3C[C@H]([N+]3(C)CCCCC3)[C@@H]4OC(C)=O)[C@@]2(C)C[C@@H]1[N+]1(C)CCCCC1", "note": "[Pancuronium dibromide]", "carbachol-stimulated secreted lysozyme activity (log10)": "0.142 ± 0.19"}, {"smiles": "CCOc1ccccc1-n1c(C(C)N2CCN(C(=O)COc3ccc(Cl)cc3)CC2)nc2ccccc2c1=O", "note": "(stereo not given) [Erastin]", "carbachol-stimulated secreted lysozyme activity (log10)": "0.16 ± 0.15"}, {"smiles": "Cc1cc2c(C(C)C)c(O)c(O)c(C=O)c2c(O)c1-c1c(C)cc2c(C(C)C)c(O)c(O)c(C=O)c2c1O", "carbachol-stimulated secreted lysozyme activity (log10)": "0.0243 ± 0.065"}]}, {"test_system": "murine small intestinal organoids (ENR+CD Paneth differentiation)", "test": "carbachol-stimulated secreted lysozyme activity relative to plate median (log10 fold change); higher = more Paneth cell lysozyme secretion", "conditions": "2 µM; 6 d; carbachol 10 µM", "values": [{"smiles": "O=C1CC[C@@]2(O)[C@H]3Cc4ccc(O)c5c4[C@@]2(CCN3CC2CC2)[C@H]1O5", "note": "[Naltrexone HCl]", "carbachol-stimulated secreted lysozyme activity (log10)": "0.0547 ± 0.074"}, {"smiles": "COc1ccc(C(=O)N2CCCC2=O)cc1", "note": "[Aniracetam]", "carbachol-stimulated secreted lysozyme activity (log10)": "-0.0799 ± 0.051"}, {"smiles": "C[C@](O)(COc1ccc(C#N)cc1)C(=O)Nc1ccc(C#N)c(C(F)(F)F)c1", "carbachol-stimulated secreted lysozyme activity (log10)": "0.13 ± 0.21"}, {"smiles": "Cc1cc(SCc2sc(-c3ccc(C(F)(F)F)c(F)c3)nc2C)ccc1OCC(=O)O", "carbachol-stimulated secreted lysozyme activity (log10)": "0.0564 ± 0.11"}, {"smiles": "O=C(O)CNC(=O)c1c(O)c2ccccc2n(Cc2ccccc2)c1=O", "carbachol-stimulated secreted lysozyme activity (log10)": "-0.0113 ± 0.026"}, {"smiles": "C[C@@H]1O[C@@H](O[C@H]2C[C@@H](O)[C@]3(CO)[C@H]4[C@H](O)C[C@]5(C)[C@@H](C6=CC(=O)OC6)CC[C@]5(O)[C@@H]4CC[C@]3(O)C2)[C@H](O)[C@H](O)[C@H]1O", "note": "[Ouabain]", "carbachol-stimulated secreted lysozyme activity (log10)": "0.0248 ± 0.037"}, {"smiles": "CCc1c(C(=O)C(N)=O)c2c(OCC(=O)O)cccc2n1Cc1ccccc1", "carbachol-stimulated secreted lysozyme activity (log10)": "0.1 ± 0.022"}, {"smiles": "CCC(COC(=O)c1cc(OC)c(OC)c(OC)c1)(c1ccccc1)N(C)C", "note": "(stereo not given) [Trimebutine]", "carbachol-stimulated secreted lysozyme activity (log10)": "-0.149 ± 0.27"}, {"smiles": "CN1CCc2cc3c(cc2C1C1OC(=O)c2c1ccc1c2OCO1)OCO3", "note": "(single isomer, unassigned; (+)) [(+)-Bicuculline]", "carbachol-stimulated secreted lysozyme activity (log10)": "0.0158 ± 0.026"}, {"smiles": "Fc1cc(F)c2c(c1)[C@H]1C=CC[C@H]1C(c1cccnc1)N2", "note": "(stereo not given in full) [Golgicide A]", "carbachol-stimulated secreted lysozyme activity (log10)": "0.0963 ± 0.012"}, {"smiles": "Cn1cc(C2=C(c3cn(C4CCN(Cc5ccccn5)CC4)c4ccccc34)C(=O)NC2=O)c2ccccc21", "carbachol-stimulated secreted lysozyme activity (log10)": "0.0354 ± 0.079"}, {"smiles": "CCN(CC)C(=O)c1ccc(C2=CC3(CCNCC3)Oc3cccc(O)c32)cc1", "carbachol-stimulated secreted lysozyme activity (log10)": "0.0809 ± 0.14"}, {"smiles": "Cc1sc2c(c1C)C(c1ccc(Cl)cc1)=N[C@@H](CC(=O)OC(C)(C)C)c1nnc(C)n1-2", "carbachol-stimulated secreted lysozyme activity (log10)": "-0.459 ± 0.0092"}, {"smiles": "COc1cc(-n2c(=S)[nH]c3ccccc3c2=O)c(Cl)cc1Cl", "note": "[Mdivi-1]", "carbachol-stimulated secreted lysozyme activity (log10)": "-0.0492 ± 0.23"}, {"smiles": "O=c1[nH]c2ccc(Cl)cc2c(N[C@@H]2CN3CCC2CC3)c1-c1nc2ccccc2[nH]1", "carbachol-stimulated secreted lysozyme activity (log10)": "-0.41 ± 0.079"}, {"smiles": "CCCN1CCO[C@@H]2c3cc(O)ccc3OC[C@H]21", "carbachol-stimulated secreted lysozyme activity (log10)": "0.148 ± 0.068"}, {"smiles": "N[C@@H]1C[C@H]1c1ccccc1", "note": "[Tranylcypromine (2-PCPA) HCl]", "carbachol-stimulated secreted lysozyme activity (log10)": "0.195 ± 0.19"}, {"smiles": "CCOC(=O)c1cncn1[C@H](C)c1ccccc1", "note": "[Etomidate]", "carbachol-stimulated secreted lysozyme activity (log10)": "0.0576 ± 0.089"}, {"smiles": "CC[C@@H]1/C=C/C=C/C[C@H](C)[C@H](O)[C@](C)(O)C(=O)[C@H](C)[C@@H](O)[C@H](C)C(=O)[C@H](C)[C@@H](O)[C@H](C)/C=C/C(=O)O[C@H]2[C@@H](C)[C@@H](CC1)O[C@@]1(CC[C@@H](C)[C@@H](C[C@H](C)O)O1)[C@@H]2C", "note": "[Oligomycin A]", "carbachol-stimulated secreted lysozyme activity (log10)": "-0.316 ± 0.19"}, {"smiles": "Cc1ccc(-n2nccn2)c(C(=O)N2CCN(c3nc4cc(Cl)ccc4o3)CC[C@H]2C)c1", "note": "[Suvorexant (MK-4305)]", "carbachol-stimulated secreted lysozyme activity (log10)": "0.0747 ± 0.086"}, {"smiles": "CN1CCCCC1Cn1cc(C(=O)c2cc([N+](=O)[O-])ccc2I)c2ccccc21", "note": "(stereo not given)", "carbachol-stimulated secreted lysozyme activity (log10)": "0.0123 ± 0.15"}, {"smiles": "Cc1sc2c(c1C)C(c1ccc(Cl)cc1)=N[C@@H](CC(=O)Nc1ccc(O)cc1)c1nnc(C)n1-2", "carbachol-stimulated secreted lysozyme activity (log10)": "-0.457 ± 0.11"}, {"smiles": "O=C(O[C@H]1C[C@H]2CC[C@@H](C1)[N+]21CCCC1)C(O)(c1ccccc1)c1ccccc1", "note": "[Trospium chloride]", "carbachol-stimulated secreted lysozyme activity (log10)": "-0.00598 ± 0.092"}, {"smiles": "C=C1C[C@@H]2[C@H](CC[C@]3(C)C(=O)CC[C@@H]23)[C@@]2(C)C=CC(=O)C=C12", "note": "[Exemestane]", "carbachol-stimulated secreted lysozyme activity (log10)": "0.0676 ± 0.11"}, {"smiles": "C[C@@]12N[C@@H](Cc3ccccc31)c1ccccc12", "note": "[(-)-MK 801 Maleate]", "carbachol-stimulated secreted lysozyme activity (log10)": "-0.438 ± 0.12"}, {"smiles": "O=[N+]([O-])/C=C/c1ccc2c(c1)OCO2", "note": "[MNS (3,4-Methylenedioxy-Œ≤-nitrostyrene, MDBN)]", "carbachol-stimulated secreted lysozyme activity (log10)": "0.000258 ± 0.25"}, {"smiles": "CC(=O)O[C@H]1C[C@@H]2CC[C@@H]3[C@H](CC[C@@]4(C)[C@H]3C[C@H]([N+]3(C)CCCCC3)[C@@H]4OC(C)=O)[C@@]2(C)C[C@@H]1[N+]1(C)CCCCC1", "note": "[Pancuronium dibromide]", "carbachol-stimulated secreted lysozyme activity (log10)": "0.109 ± 0.017"}, {"smiles": "CCOc1ccccc1-n1c(C(C)N2CCN(C(=O)COc3ccc(Cl)cc3)CC2)nc2ccccc2c1=O", "note": "(stereo not given) [Erastin]", "carbachol-stimulated secreted lysozyme activity (log10)": "0.105 ± 0.14"}, {"smiles": "Cc1cc2c(C(C)C)c(O)c(O)c(C=O)c2c(O)c1-c1c(C)cc2c(C(C)C)c(O)c(O)c(C=O)c2c1O", "carbachol-stimulated secreted lysozyme activity (log10)": "-0.0326 ± 0.029"}]}]}
